In all, about 52,000 compounds went through this assay and about 4,300 (8.3%) were called active. No stated cut-off is given here; in the data, active means survival mostly below about 52% (no sharp cut-off); inactive means mostly above about 56%. Some of the results follow.

For this test, the system named is DeltatarO mutant. Put plainly: S. aureus survival, RN4220 and DeltatarO strains – OD600, teichoic acid synthesis inhibitors, primary screen (AID 463173). The settings on record: S. aureus RN4220 wild type/DeltatarO growth, OD600, 18 h, active compounds read low, screened at 18.75 µg/mL (by protocol).
Regarding `COc1ccccc1NC(=O)N(Cc1nnc2n1CCCCC2)c1ccc(F)cc1`, the survival was inactive: 91%. Consider `COc1ccc(OC)c(CNS(=O)(=O)c2ccc3c(c2)CCCN3C(C)=O)c1`, for which the survival was inactive: 73%. Then `O=C(NCCc1ccccc1)c1ccc2c(c1)N(Cc1ccc(F)cc1)C(=O)c1ccccc1S2(=O)=O`, with inactive: 97%; and `O=C(CN(C(=O)C1CSC(=O)C1)c1ccccc1F)NC1CCCC1` (stereo not given), with inactive: 95%. Then `Cc1cccc(N(CC(O)Cn2c3ccccc3c3ccccc32)S(=O)(=O)c2ccc(F)cc2)c1` (stereo not given), with inactive: 58%. `CC(C)c1ccc(NC(=O)c2cc3sc(Cl)cc3n2C)cc1`: the survival is inactive: 142%.

Consider `Cc1c(Cl)cccc1NC(=O)CSc1ncc2c(n1)-c1ccccc1N(C)S2(=O)=O`, for which the survival is inactive: 102%.

As to `CN(CCCNC(=O)c1cc2c(Cl)nc3ccccc3c2s1)Cc1ccccc1`, the survival is inactive: 55%. Then `CCN(CC)CCNC(=O)c1c(C)oc2ncnc(N3CCOCC3)c12`, with inactive: 130%; and `Cc1cccc(C)c1OCC(=O)Nc1ncn[nH]1`, with inactive: 62%.

On to `CCOc1ccc(CCNC(=O)c2cnc3sc(N(CC)CC)nn3c2=O)cc1OCC`, for which the survival is inactive: 122%. The same measure for `Cc1cc(C)c(NC(=O)Cn2cc(S(=O)(=O)Cc3ccccc3F)c3ccccc32)c(C)c1`: inactive: 71%. In the case of `COc1ccc(CCn2c(=O)c3cccnc3n(CC(=O)Nc3ccc(C)c(F)c3)c2=O)cc1OC`, the survival was inactive: 70%. Take `C=Cc1ccc(Cn2c(C(=O)O)c(CNC3CCCCC3)c3ccc(C)cc32)cc1`: the survival was inactive: 88%. Then `CCC(C)C(NC(=O)c1cc(C)oc1C)C(=O)O` (stereo not given), with inactive: 95%; and `COc1ccc(-c2nnc(SCC(=O)Nc3cccc(C(F)(F)F)c3)nc2-c2ccc(OC)cc2)cc1`, with inactive: 87%.

With `CC(C)NC(=O)Cn1cnc2c1c(=O)n(C)c(=O)n2C`, the survival is inactive: 84%.

With `Cc1cc(C)cc(NC(=O)N2CCC3(CC2)Oc2ccccc2C(=O)N3Cc2ccccc2F)c1`, the survival is inactive: 57%. Take `NC(=O)c1ccc(-c2ccccc2)cc1C(N)=O`: the survival is active: 66%. The same measure for `O=C(CCS(=O)(=O)c1cccc2nonc12)Nc1c(F)cccc1F`: inactive: 76%; for `CC1CCc2c(sc3nc(-c4cc5cc(Br)ccc5oc4=O)[nH]c(=O)c23)C1` (stereo not given): inactive: 74%. Then `N#CC(C#N)=Cc1cn(Cc2ccccc2)c2ccccc12`, with inactive: 96%; and `CCCn1c(-c2ccc(F)cc2)cnc1SCC(=O)N1CCCCC1C` (stereo not given), with inactive: 74%.

In the case of `CCOc1ccc(NC(=O)c2c(NCc3cccnc3)sc3c2CCCC3)cc1`, the survival is inactive: 124%. As to `CCN(CC)S(=O)(=O)c1ccc(S(=O)(=O)NCc2ccc3c(c2)OCO3)cc1`, the survival is inactive: 87%.

Source of the values: PubChem BioAssay AID463173 (ICCB-Longwood Screening Facility, Harvard Medical School, 2010).
